From paper PMC4336329 (PLoS ONE, 2015)
In all, about 310,000 compounds went through this assay and about 2,200 (0.71%) showed an effect of 50% or more. Effects have a minus sign here. The list shows a part of the results.

target: human ether-à-go-go-related gene (hERG) potassium channel (human, UniProt Q12809); assay: primary screen, population patch clamp on CHO cells stably expressing hERG
Sequence (Q12809 whole entry, looked up): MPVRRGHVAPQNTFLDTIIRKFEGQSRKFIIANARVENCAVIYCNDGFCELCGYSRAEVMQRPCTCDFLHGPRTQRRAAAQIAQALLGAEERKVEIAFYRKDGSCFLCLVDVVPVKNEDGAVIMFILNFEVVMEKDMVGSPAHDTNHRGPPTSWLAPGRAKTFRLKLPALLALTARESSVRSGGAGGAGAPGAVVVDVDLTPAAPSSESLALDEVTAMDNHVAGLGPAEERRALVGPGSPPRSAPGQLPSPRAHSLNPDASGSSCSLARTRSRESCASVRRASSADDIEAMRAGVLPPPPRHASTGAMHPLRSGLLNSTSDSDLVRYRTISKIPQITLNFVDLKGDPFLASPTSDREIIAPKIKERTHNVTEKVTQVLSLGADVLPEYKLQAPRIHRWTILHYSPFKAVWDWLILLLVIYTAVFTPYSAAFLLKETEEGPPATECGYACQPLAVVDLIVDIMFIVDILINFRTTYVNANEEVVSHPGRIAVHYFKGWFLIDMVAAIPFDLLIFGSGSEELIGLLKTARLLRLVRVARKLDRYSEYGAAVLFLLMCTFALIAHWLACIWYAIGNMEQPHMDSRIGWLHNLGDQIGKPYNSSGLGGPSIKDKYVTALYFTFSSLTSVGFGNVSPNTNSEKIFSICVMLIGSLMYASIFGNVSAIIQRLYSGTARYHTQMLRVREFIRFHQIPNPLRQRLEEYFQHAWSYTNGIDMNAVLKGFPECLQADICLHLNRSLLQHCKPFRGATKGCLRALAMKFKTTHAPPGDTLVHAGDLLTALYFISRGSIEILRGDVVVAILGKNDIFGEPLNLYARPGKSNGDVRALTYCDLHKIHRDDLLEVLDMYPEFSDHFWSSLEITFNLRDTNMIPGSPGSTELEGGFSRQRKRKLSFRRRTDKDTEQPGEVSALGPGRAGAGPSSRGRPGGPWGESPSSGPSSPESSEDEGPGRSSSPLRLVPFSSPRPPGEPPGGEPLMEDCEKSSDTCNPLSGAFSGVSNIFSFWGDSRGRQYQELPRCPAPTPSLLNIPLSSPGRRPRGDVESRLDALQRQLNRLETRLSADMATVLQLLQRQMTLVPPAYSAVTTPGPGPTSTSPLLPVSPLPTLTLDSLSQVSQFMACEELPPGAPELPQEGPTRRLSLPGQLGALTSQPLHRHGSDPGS

SMILES	hERG current change (%, negative = inhibition) at 1uM
Cc1ccccc1-n1c2nc(=O)n(C)c(=O)c-2cc2ccccc21	18.5%
O=C(NCC(=O)N1CCN(S(=O)(=O)c2ccccc2C(F)(F)F)CC1)c1sc2ccccc2c1Cl	7.87%
O=C(Nc1ccccc1F)Nc1ccccc1Br	4.62%
Cc1nc(N)c(Cc2ccccc2F)c(N)n1	5.7%
CCN1C(=O)N/C(=C/c2ccc(Sc3ccc(C)cc3)o2)C1=O	14.4%
COc1ccc(S(=O)(=O)N(C)CC(=O)NCC2CCCO2)cc1OC (centres unmarked)	13.3%
Cl.O=C(c1cccc(S(=O)(=O)N2CCOCC2)c1)N1CCN(Cc2ccc3c(c2)OCO3)CC1	0.32%
O=C(CCNC(=O)Cn1ccc2ccccc2c1=O)NCc1ccccn1	4.34%
CN(C)S(=O)(=O)c1ccc(S(=O)(=O)NCCN2CCOCC2)cc1.Cl	11.2%
CSc1nn2c(C(F)(F)F)cc(C(F)(F)F)nc2c1C(=O)O	9.28%
COc1cc(CNCc2cccs2)cc(Br)c1OC.Cl	7.99%
CCC(CC)C(=O)Nc1c2c(nn1-c1ccc(F)cc1)CS(=O)(=O)C2	14%
O=C1N(CN2CCC3(CC2)OCCO3)c2ccccc2C12OCCCO2	-9.92%
COc1ccc(CCC(=O)NNC(=O)Nc2ccc(C(C)C)cc2)cc1	18.8%
COc1cccc(OC)c1C(=O)Nc1ccc(S(=O)(=O)Nc2cc(C)nc(C)n2)cc1	10.9%
COC(=O)c1sc2cc(C(F)(F)F)cnc2c1-c1ccccc1	3.09%
NC(=O)c1ccc(CN2CCc3ccccc3C2)cc1	10.9%
Cc1ccc(S(=O)(=O)NCC(=O)N(CC(=O)NCc2ccco2)C2CCCC2)cc1	9.4%
CCCCCCCCNC(=O)c1cccnc1SCC(=O)Nc1ccccc1OC	4.89%
CCN(CC)c1ccccc1	7.02%
CCOC(=O)C1CCCC(NS(=O)(=O)c2ccc(NC(C)=O)cc2)C1 (centres unmarked)	7.71%
NNC(=S)NCc1cccnc1	1.74%
CCOC(=O)c1ccc(NC(=O)NCc2cccnc2)cc1	12.4%

SMILES	hERG current change (%, negative = inhibition) at 1uM
O=C(c1cc(-c2ccncc2)nc2ccccc12)N1CCC2(CC1)OCCO2	-4.07%
CCOc1ccc(NC(=O)NN2C(C)CCCC2C)cc1 (centres unmarked)	12.8%
O=C(c1ccco1)N1CCN(S(=O)(=O)c2ccc(Oc3ccccc3)cc2)CC1	11.8%
Fc1ccc(N2CCN(/C=C/c3nnnn3-c3ccccc3)CC2)cc1	8.91%
CCC(C)(C)NC(=O)C(C)OC(=O)c1nsc(Cl)c1Cl (centres unmarked)	2.53%
CCOc1ccc2c(c1)N(C(=O)CN1C(=O)CCC1=O)C(C)(C)C=C2C	-0.567%
CCC1CCc2c(sc(NC(=O)c3ccoc3C)c2C(N)=O)C1 (centres unmarked)	12.8%
CCCCNc1c([N+](=O)[O-])cc(C)cc1[N+](=O)[O-]	0.206%
O=C(O)CN1C(=O)/C(=C/c2ccsc2)SC1=S	12%
COC(=O)c1ccc(CSc2nnc(-c3ccc4c(c3)OCO4)n2-c2ccccc2)o1	9.72%
CN(CC(=O)Nc1ccccc1C(F)(F)F)C(=O)c1ccc(-c2ccc(Cl)cc2)o1	8.84%
Cc1cc(NC(=O)c2ccccc2)ccc1NC(=O)Cc1ccccc1	10.3%
CCOc1ccccc1NC(=O)c1cc(CC(C)C)oc1C	13.1%
CC(C)C(=O)Nc1nnc(SCC(=O)Nc2ccc3c(c2)OCO3)s1	12.1%
CC1(C(=O)N/N=C/c2cc3c(cc2Br)OCO3)CC1(Br)Br (centres unmarked)	5.38%
O=C1NC2(CCCC2)C(=O)N1CCS(=O)(=O)Oc1ccccc1	6.24%
CCCC(=O)Nc1ccc(NC(=O)c2ccccc2F)cn1	11.2%
COc1ccccc1-n1c(O)c(C=NCc2ccccn2)c2ccccc2c1=O	9.65%
COC(=O)c1sccc1NC(=O)c1cc(-c2cccc(C)c2)nc2ccccc12	3.61%
Cc1ccn(S(=O)(=O)c2ccc3oc(=O)ccc3c2)n1	13%
COc1ccc(C(=O)N/N=C/c2c(C)[nH]c(=O)[nH]c2=O)cc1	9.24%
O=C(Nc1nc(-c2ccco2)c(-c2ccco2)s1)c1ccco1	2.31%
Fc1ccccc1N=C1Nc2cccc3cccc1c23	10.2%

SMILES	hERG current change (%, negative = inhibition) at 1uM
CCOC(=O)Cc1csc(NC(=O)Cc2ccccc2)n1	3.31%
COc1ccccc1CN1CC(C(=O)NCCn2nc(C)cc2C)CCC1=O (centres unmarked)	-7.75%
COc1ccc2cc(C(c3nnnn3CCc3ccccc3)N3CCC(O)CC3)c(=O)[nH]c2c1 (centres unmarked)	-1.14%
CCc1ccc(OCC(=O)N/N=C/c2cc([N+](=O)[O-])ccc2N2CCCCCC2)cc1	6.01%
CCOC(=O)CN1C(=O)S/C(=C/c2ccc(OC)c([N+](=O)[O-])c2)C1=O	10.9%
Cc1ccc(C(=O)N(Cc2nc(-c3ccc(C)cc3)no2)C(C)C)cc1	0.608%
CC(C)(C)C1=CC(=O)C(N2CCOCC2)=CC1=O	11.8%
COc1ccc(OC)c2c1C(=O)c1ccccc1C2=O	5.09%
COc1ccc(-c2noc(CSc3nc(N)c(-c4ccccc4)c(=O)[nH]3)n2)cc1	7.08%
CCC(C)/C(C)=N/NC(=O)CSc1nc2ccccc2[nH]1 (centres unmarked)	5.26%
CC(=O)Nc1ccc(S(=O)(=O)N=S(C)(C)=O)cc1	2.71%
COc1ccc(S(=O)(=O)NN(C)C)cc1N(C)S(=O)(=O)c1ccc(Cl)cc1	4.08%
CCOc1ccc(C(=O)NC(C(=O)NCC2CCCO2)C(C)C)cc1 (centres unmarked)	10.1%
COc1cccc(CN2CCNC(=O)C2CC(=O)N2CCCCO2)c1OC (centres unmarked)	7.47%
COc1ccc(/C=C2/SC(=S)N(CCCC(=O)Nc3ccccc3C(=O)O)C2=O)cc1	5.8%
O=C(COC(=O)/C=C/c1ccc(OC(F)F)cc1)Nc1cccc(S(=O)(=O)N2CCCC2)c1	2.66%
CN(CC(=O)Nc1cccc(F)c1)C(=O)C1CC(=O)N(Cc2ccco2)C1 (centres unmarked)	3.91%
CC(C)(OC(=O)c1ccc(C(F)(F)F)cc1)c1cc2ccccc2c(=O)o1	13.9%
COc1cc(-c2[nH]ncc2CN(C)Cc2cc(C)[nH]n2)cc(OC)c1OC	10.4%
O=C(C1CCC(Cn2c(=O)[nH]c3ccccc3c2=O)CC1)N1CCN(c2ccccc2)CC1 (centres unmarked)	12.3%
COc1ccc(C(C)=O)cc1COc1ccc([N+](=O)[O-])c(C)c1	0.825%
C=C(C(=O)Oc1ccccc1C(C)(C)C)c1ccccc1	4.97%
CCOc1ccc(-c2nnc(SCC(=O)Nc3ccc4c(c3)c3ccccc3n4CC)n2N)cc1	17.7%

SMILES	hERG current change (%, negative = inhibition) at 1uM
N#Cc1ccc(C(=O)NC2=NCCS2)cc1	12.2%
COc1cccc(C(C(=O)NC(C)(C)C)N(Cc2ccc(F)cc2)C(=O)CCC(=O)Nc2cc(C)on2)c1OC (centres unmarked)	3.3%
O=C1CSC(=S)N1/N=C/c1ccc2c(c1)OCCO2	17.8%
COc1ccc(C(=O)NCC(C)NC(=O)c2ccc(OC)c(OC)c2)cc1OC (centres unmarked)	6.07%
COc1ccccc1NC(=O)c1ccc(NC(=O)Cc2n[nH]c(=O)c3ccccc23)cc1	0.173%
CCCS(=O)(=O)NCc1cn2cccc(C)c2n1	9.05%
CCC(=O)Nc1cc(-c2nn(CC(=O)N3CCCCC3)c(=O)c3ccccc23)ccc1N1CCOCC1	8.9%
O=C(Nc1ccc(S(=O)(=O)N2CCCCCC2)cc1)C1CCCO1 (centres unmarked)	-12.9%
COc1cccc(-n2cnc3cccc(N)c32)c1	12.8%
Fc1ccc(C(c2nnnn2C2CCCC2)N2CCc3ccccc32)cc1 (centres unmarked)	6.53%
C=CCN(CC=C)C(=S)NC(=O)c1ccc(C)c(Br)c1	15.9%
O=C(C(Cc1ccccc1)N1C(=O)c2ccccc2C1=O)N1CCc2ccccc21 (centres unmarked)	14.6%
CCOCC(=O)Nc1ccc(S(=O)(=O)NCCc2ccccc2)cc1	-0.569%
CCOC(=O)C1CCN(c2ccc(C(=O)O)cc2[N+](=O)[O-])CC1	9.19%
O=C(NC1CCCC1)c1ccc(CS(=O)(=O)Cc2ccccc2Cl)o1	7.8%
COc1ccc(NC(=O)COC(=O)C(CC(C)C)N2C(=O)C3CC=CCC3C2=O)cc1Cl (centres unmarked)	1.03%
CC(C)(C)OC(=O)CC[C@@H](C(=O)N1CCN(C(=O)OC(C)(C)C)CC1)n1cc(C(CO)NC(=O)OC(C)(C)C)nn1 (some centres unmarked)	14.2%
O=C(COC(=O)c1ccco1)Nc1ccc([N+](=O)[O-])cc1Cl	8.85%
COc1ccc(OC)c(-n2c(-c3cccc(O)c3)n[nH]c2=S)c1	10.2%
O=c1c(C(c2ccccc2)c2c(O)nc3n(c2=O)CCCS3)c(O)nc2n1CCCS2	13.9%
